Source: PMC9911399, “Two distinct binding modes provide the RNA-binding protein RbFox with extraordinary sequence specificity”
Numbering of substitutions follows the chain as printed; changes in the protein carry UniProt numbers. The list shows a part of the results.

T1: RBFOX1 RRM RbFoxmut (Fox-RRM*) (Homo sapiens, UniProt Q9NWB1 109-208, R118D;E147R;N151S;E152T)
T1 sequence: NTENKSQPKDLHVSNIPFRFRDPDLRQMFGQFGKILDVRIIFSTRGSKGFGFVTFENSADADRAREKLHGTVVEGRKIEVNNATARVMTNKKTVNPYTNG

B1: UUGUAUU (DNA:RNA)
RNA: GGGAGACCGGAAUUCAGAUUGUCCUUGUAUUUUAAAUCCCGUCGUAGCCACCA
DNA 1: CAATCTGAATTCCGGTCTCCC
DNA 2: TGGTGGCTACGACGGGATT
B2: CGACAUU (DNA:RNA)
RNA: B1 RNA with U25C, U26G, G27A, U28C
DNA 1: CAATCTGAATTCCGGTCTCCC
DNA 2: TGGTGGCTACGACGGGATT
B3: AGAUGGG (DNA:RNA)
RNA: B1 RNA with U25A, U26G, G27A, A29G, U30G, U31G
DNA 1: CAATCTGAATTCCGGTCTCCC
DNA 2: TGGTGGCTACGACGGGATT
B4: UGCCCCC (DNA:RNA)
RNA: B1 RNA with U26G, G27C, U28C, A29C, U30C, U31C
DNA 1: CAATCTGAATTCCGGTCTCCC
DNA 2: TGGTGGCTACGACGGGATT
B5: AUCUACA (DNA:RNA)
RNA: B1 RNA with U25A, G27C, U30C, U31A
DNA 1: CAATCTGAATTCCGGTCTCCC
DNA 2: TGGTGGCTACGACGGGATT
B6: UCUACAU (DNA:RNA)
RNA: B1 RNA with U26C, G27U, U28A, A29C, U30A
DNA 1: CAATCTGAATTCCGGTCTCCC
DNA 2: TGGTGGCTACGACGGGATT
B7: AAUACGU (DNA:RNA)
RNA: B1 RNA with U25A, U26A, G27U, U28A, A29C, U30G
DNA 1: CAATCTGAATTCCGGTCTCCC
DNA 2: TGGTGGCTACGACGGGATT
B8: CUCCACG (DNA:RNA)
RNA: B1 RNA with U25C, G27C, U28C, U30C, U31G
DNA 1: CAATCTGAATTCCGGTCTCCC
DNA 2: TGGTGGCTACGACGGGATT
B9: GCCUAUG (DNA:RNA)
RNA: B1 RNA with U25G, U26C, G27C, U31G
DNA 1: CAATCTGAATTCCGGTCTCCC
DNA 2: TGGTGGCTACGACGGGATT
B10: GUGAGGG (DNA:RNA)
RNA: B1 RNA with U25G, U28A, A29G, U30G, U31G
DNA 1: CAATCTGAATTCCGGTCTCCC
DNA 2: TGGTGGCTACGACGGGATT
B11: GUUGUGG (DNA:RNA)
RNA: B1 RNA with U25G, G27U, U28G, A29U, U30G, U31G
DNA 1: CAATCTGAATTCCGGTCTCCC
DNA 2: TGGTGGCTACGACGGGATT
B12: ACGAGAG (DNA:RNA)
RNA: B1 RNA with U25A, U26C, U28A, A29G, U30A, U31G
DNA 1: CAATCTGAATTCCGGTCTCCC
DNA 2: TGGTGGCTACGACGGGATT
B13: ACGCGUG (DNA:RNA)
RNA: B1 RNA with U25A, U26C, U28C, A29G, U31G
DNA 1: CAATCTGAATTCCGGTCTCCC
DNA 2: TGGTGGCTACGACGGGATT
B14: CGCUACC (DNA:RNA)
RNA: B1 RNA with U25C, U26G, G27C, U30C, U31C
DNA 1: CAATCTGAATTCCGGTCTCCC
DNA 2: TGGTGGCTACGACGGGATT
B15: AAUAAGG (DNA:RNA)
RNA: B1 RNA with U25A, U26A, G27U, U28A, U30G, U31G
DNA 1: CAATCTGAATTCCGGTCTCCC
DNA 2: TGGTGGCTACGACGGGATT
B16: GCUCAGG (DNA:RNA)
RNA: B1 RNA with U25G, U26C, G27U, U28C, U30G, U31G
DNA 1: CAATCTGAATTCCGGTCTCCC
DNA 2: TGGTGGCTACGACGGGATT
B17: AGAUGCC (DNA:RNA)
RNA: B1 RNA with U25A, U26G, G27A, A29G, U30C, U31C
DNA 1: CAATCTGAATTCCGGTCTCCC
DNA 2: TGGTGGCTACGACGGGATT
B18: CACAUCC (DNA:RNA)
RNA: GGGAGACCGGAAUUCAGAUUGUCCCACAUCCUUAAAUCCCGUCGUAGCCACCA
DNA 1: CAATCTGAATTCCGGTCTCCC
DNA 2: TGGTGGCTACGACGGGATT
B19: AGAUACU (DNA:RNA)
RNA: B1 RNA with U25A, U26G, G27A, U30C
DNA 1: CAATCTGAATTCCGGTCTCCC
DNA 2: TGGTGGCTACGACGGGATT
B20: GAAUCAC (DNA:RNA)
RNA: B18 RNA with C25G, C27A, A28U, U29C, C30A
DNA 1: CAATCTGAATTCCGGTCTCCC
DNA 2: TGGTGGCTACGACGGGATT
B21: GAUAGAU (DNA:RNA)
RNA: B18 RNA with C25G, C27U, U29G, C30A, C31U
DNA 1: CAATCTGAATTCCGGTCTCCC
DNA 2: TGGTGGCTACGACGGGATT
B22: GCGUUCA (DNA:RNA)
RNA: B18 RNA with C25G, A26C, C27G, A28U, C31A
DNA 1: CAATCTGAATTCCGGTCTCCC
DNA 2: TGGTGGCTACGACGGGATT
B23: ACCACAA (DNA:RNA)
RNA: B18 RNA with C25A, A26C, U29C, C30A, C31A
DNA 1: CAATCTGAATTCCGGTCTCCC
DNA 2: TGGTGGCTACGACGGGATT
B24: CCCAUCA (DNA:RNA)
RNA: B18 RNA with A26C, C31A
DNA 1: CAATCTGAATTCCGGTCTCCC
DNA 2: TGGTGGCTACGACGGGATT
B25: CCACAGC (DNA:RNA)
RNA: B18 RNA with A26C, C27A, A28C, U29A, C30G
DNA 1: CAATCTGAATTCCGGTCTCCC
DNA 2: TGGTGGCTACGACGGGATT
B26: UGAAUUU (DNA:RNA)
RNA: B1 RNA with U26G, G27A, U28A, A29U
DNA 1: CAATCTGAATTCCGGTCTCCC
DNA 2: TGGTGGCTACGACGGGATT
B27: UGGUACU (DNA:RNA)
RNA: B1 RNA with U26G, U30C
DNA 1: CAATCTGAATTCCGGTCTCCC
DNA 2: TGGTGGCTACGACGGGATT
B28: UUUAGUA (DNA:RNA)
RNA: B1 RNA with G27U, U28A, A29G, U31A
DNA 1: CAATCTGAATTCCGGTCTCCC
DNA 2: TGGTGGCTACGACGGGATT
B29: GAACGAC (DNA:RNA)
RNA: B18 RNA with C25G, C27A, A28C, U29G, C30A
DNA 1: CAATCTGAATTCCGGTCTCCC
DNA 2: TGGTGGCTACGACGGGATT
B30: GAGGUCA (DNA:RNA)
RNA: B18 RNA with C25G, C27G, A28G, C31A
DNA 1: CAATCTGAATTCCGGTCTCCC
DNA 2: TGGTGGCTACGACGGGATT
B31: UUUUGGU (DNA:RNA)
RNA: B1 RNA with G27U, A29G, U30G
DNA 1: CAATCTGAATTCCGGTCTCCC
DNA 2: TGGTGGCTACGACGGGATT

Target: T1, RBFOX1 RRM RbFoxmut (Fox-RRM*)
Assay: EMSA; HiTS-Eq, 1 nM pool, 10 min; buffer printed only for the single-RNA assays: 10 mM Tris pH 7.5, 150 mM NaCl, 3.4 mM EDTA, 0.001% NP-40, 30 C
Conditions: tags: His6 N-terminal (pET28a); label: 5' 32P
Procedure, shortened: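 Purified RbFox RRM (wild type or mutant) was equilibrated for 10 min in 50 µL with 1 nM of a 5′-radiolabelled pool of RNA with 7 randomized nucleotides, its flanks annealed to DNA oligonucleotides, across increasing protein concentrations. Free RNA was separated by 8% native PAGE, excised, reverse-transcribed, PCR-barcoded and sequenced on an Illumina HiSeq 2500. Relative association constants came from read-count changes of each variant against the control reaction, normalised to the cognate motif.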

Row | Binder | binding signal
1 | B1 | 0.171 KA relative to UGCAUGU
2 | B2 | 0.0528 KA relative to UGCAUGU
3 | B3 | 0.0684 KA relative to UGCAUGU
4 | B4 | 0.0484 KA relative to UGCAUGU
5 | B5 | 0.0989 KA relative to UGCAUGU
6 | B6 | 0.0991 KA relative to UGCAUGU
7 | B7 | 0.118 KA relative to UGCAUGU
8 | B8 | 0.0931 KA relative to UGCAUGU
9 | B9 | 0.128 KA relative to UGCAUGU
10 | B10 | 0.0711 KA relative to UGCAUGU
11 | B11 | 0.104 KA relative to UGCAUGU
12 | B12 | 0.14 KA relative to UGCAUGU
13 | B13 | 0.159 KA relative to UGCAUGU
14 | B14 | 0.0756 KA relative to UGCAUGU
15 | B15 | 0.0882 KA relative to UGCAUGU
16 | B16 | 0.0833 KA relative to UGCAUGU

Row | Binder | binding signal
17 | B17 | 0.193 KA relative to UGCAUGU
18 | B18 | 0.0726 KA relative to UGCAUGU
19 | B19 | 0.0982 KA relative to UGCAUGU
20 | B20 | 0.172 KA relative to UGCAUGU
21 | B21 | 0.0816 KA relative to UGCAUGU
22 | B22 | 0.1 KA relative to UGCAUGU
23 | B23 | 0.0816 KA relative to UGCAUGU
24 | B24 | 0.133 KA relative to UGCAUGU
25 | B25 | 0.0892 KA relative to UGCAUGU
26 | B26 | 0.0646 KA relative to UGCAUGU
27 | B27 | 0.104 KA relative to UGCAUGU
28 | B28 | 0.144 KA relative to UGCAUGU
29 | B29 | 0.0905 KA relative to UGCAUGU
30 | B30 | 0.0901 KA relative to UGCAUGU
31 | B31 | 0.102 KA relative to UGCAUGU
